# The whole screen tested about 310,000 compounds, of which about 2,200 (0.71%) showed an effect of 50% or more. The effect is printed as a negative number. Some of the results follow.
# Molecular target: human ether-à-go-go-related gene (hERG) potassium channel (human, UniProt Q12809)
# Experiment: primary screen, population patch clamp on CHO cells stably expressing hERG
# human ether-à-go-go-related gene (hERG) potassium channel, sequence (Q12809 whole entry, looked up): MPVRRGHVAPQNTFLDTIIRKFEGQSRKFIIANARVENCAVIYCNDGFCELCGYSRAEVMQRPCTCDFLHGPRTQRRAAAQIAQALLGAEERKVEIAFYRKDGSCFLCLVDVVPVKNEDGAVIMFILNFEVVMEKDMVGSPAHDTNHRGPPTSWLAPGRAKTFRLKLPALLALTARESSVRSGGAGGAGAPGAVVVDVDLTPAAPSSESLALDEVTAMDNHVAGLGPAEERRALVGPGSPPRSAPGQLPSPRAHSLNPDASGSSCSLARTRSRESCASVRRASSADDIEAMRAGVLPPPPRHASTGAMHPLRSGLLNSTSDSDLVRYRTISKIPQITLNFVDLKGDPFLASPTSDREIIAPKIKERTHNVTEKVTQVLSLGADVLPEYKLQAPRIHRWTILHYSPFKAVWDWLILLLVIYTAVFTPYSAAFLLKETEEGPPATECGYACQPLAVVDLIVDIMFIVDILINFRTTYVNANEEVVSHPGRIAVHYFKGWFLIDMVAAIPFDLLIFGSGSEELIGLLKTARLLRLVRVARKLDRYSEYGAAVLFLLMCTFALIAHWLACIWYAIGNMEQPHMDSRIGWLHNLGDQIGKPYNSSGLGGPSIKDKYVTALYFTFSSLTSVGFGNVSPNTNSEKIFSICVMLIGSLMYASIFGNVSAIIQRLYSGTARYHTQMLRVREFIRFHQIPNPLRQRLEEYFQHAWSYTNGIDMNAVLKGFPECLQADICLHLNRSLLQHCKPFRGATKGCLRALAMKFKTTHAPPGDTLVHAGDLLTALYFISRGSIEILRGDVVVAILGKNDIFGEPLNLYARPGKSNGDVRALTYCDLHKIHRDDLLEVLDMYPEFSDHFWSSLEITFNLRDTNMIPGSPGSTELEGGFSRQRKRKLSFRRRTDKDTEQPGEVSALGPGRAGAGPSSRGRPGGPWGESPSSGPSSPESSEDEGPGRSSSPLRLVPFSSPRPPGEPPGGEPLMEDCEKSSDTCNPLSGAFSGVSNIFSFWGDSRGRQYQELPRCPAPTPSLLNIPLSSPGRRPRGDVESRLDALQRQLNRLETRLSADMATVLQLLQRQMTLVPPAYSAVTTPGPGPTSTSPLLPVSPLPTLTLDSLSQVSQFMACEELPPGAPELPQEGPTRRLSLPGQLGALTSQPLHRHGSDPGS
row,Compound,"hERG current change (%, negative = inhibition) at 1uM [%]"
1,Cc1cc2nc(-c3ccc(SCC(=O)Nc4ccc(S(=O)(=O)N5CCCC5)cc4)nc3)[nH]c2cc1C,6.1
2,O=C(O)CCCC(=O)Nc1nc(-c2ccc(F)cc2)cs1,-3.64
3,CCN(CC(=O)Nc1c(F)cccc1F)C(=O)COc1cccc2c1OC(C)(C)C2,4.46
4,O=C1c2ccc(Cl)cc2S(=O)(=O)c2cccc(C(=O)N3CCN(c4ncc(Br)cn4)CC3)c21,3.23
5,COc1cccc(C(C(=O)NC2CCCC2)N(C(=O)c2ccco2)C2CC2)c1OC (stereo not shown),15.2
6,Cc1occc1C(=O)NNC(=O)Nc1ccc(Cl)c(Cl)c1,0.135
7,CCN(CC)CCN(C(=O)c1ccc([N+](=O)[O-])cc1)c1nc2c(OC)cccc2s1.Cl,-53.4
8,CNC(=O)C1=C(C)Nc2nc3ccccc3n2C1c1ccc(F)cc1 (stereo not shown),7.95
9,CC(C)(C)c1ccc(C(=O)COC(=O)CN2C(=O)NC3(CCCC3)C2=O)cc1,10.7
10,NNC(=O)c1ccc(N2CCc3ccccc32)c([N+](=O)[O-])c1,2.04
11,N#C/C(=C\c1ccccc1)C(=O)NCc1ccc(F)cc1,13.4
12,O=C(O)c1cc(-c2ccccc2)on1,17.8
13,CC(/C=C/C1(O)C(C)CC(O)CC1(C)C)OC1OC(CO)C(O)C(O)C1O (stereo not shown),13.1
14,O=C(Nc1ccc(N2CCOCC2)cc1)C1CCCCN1S(=O)(=O)c1ccccc1 (stereo not shown),2.21
15,Cc1ccc(-c2nc3cc(N)ccc3o2)cc1,4.61
16,Cc1ccc(C(=O)NC2CCN(S(=O)(=O)c3ccc(C)cc3)CC2)cc1,9.94
17,O=C(COc1ccccc1)NC(=S)Nc1cccc([N+](=O)[O-])c1,13.1
18,COc1cccc(C(=O)NC2CCCc3c2cnn3-c2cc(C)cc(C)c2)c1 (stereo not shown),5.25
19,COc1ccc(N(C(=O)CNC(=O)c2ccco2)C(C(=O)NC2CCCCC2)c2cccnc2)cc1 (stereo not shown),9.77
20,Br.CCOc1ccc(C2=CS/C(=C(\C#N)c3nnc4n3CCCCC4)N2CC)cc1,-0.859
21,O=C(c1cccc(F)c1)N1CCCC(C(=O)N2CCCC2)C1 (stereo not shown),13.8
22,COc1ccccc1NC(=O)N1CCC(C(=O)c2ccc(Cl)cc2)CC1,-8.89
23,CCN(CC)CCn1c2c(c(SCC(=O)Nc3cc(C)on3)nc1=O)CCCC2,6.36
24,CCOC(=O)C1(Cc2ccccc2C(F)(F)F)CCN(C(=O)c2cc(C(C)=O)n[nH]2)CC1,-7.13
25,Cc1ccsc1CN(C)CC(=O)NCC(=O)Nc1ccc(F)cc1,1.27
26,Cc1cc(=O)oc2cc(OCC(=O)N3CCCc4ccccc43)ccc12,9.46
27,Nn1c(SCC(=O)Nc2nccs2)nnc1C1CC1,2.62
28,CN1C(=O)N(C)C(=O)C2(Cc3cc([N+](=O)[O-])ccc3N(C)C2c2ccccc2)C1=O (stereo not shown),1.8

row,Compound,"hERG current change (%, negative = inhibition) at 1uM [%]"
1,Cc1ccc(NC(=O)COC(=O)[C@@H]2CCCN2C(=O)c2cccs2)cc1S(=O)(=O)N(C)C,-41.3
2,O=C(Nc1cccs1)Nc1ccccc1Br,12.5
3,CC(CN)(NS(=O)(=O)c1ccccc1)c1ccccc1 (stereo not shown),11.9
4,CC(=O)c1ccccc1OC(=O)CCN1C(=O)C2C3C=CC(C4CC34)C2C1=O (stereo not shown),11.3
5,O=C(c1ccc(C(F)(F)F)cc1)C1CCCN(Cc2cccn2-c2ncccn2)C1 (stereo not shown),-88
6,O=C(NCc1ccco1)c1ccc(Br)s1,-3.62
7,FC(F)(F)c1cnc(N2CCSCC2)c(Cl)c1,8.48
8,Cl.c1ccc(Cn2nnnc2C(c2cccs2)N2CCCCCC2)cc1 (stereo not shown),9.91
9,CNC(=O)c1ccc2snnc2c1,5.03
10,CC1CCc2nc(NC(=O)c3ccco3)sc2C1 (stereo not shown),1.29
11,COc1ccccc1S(=O)(=O)CC(O)COc1ccc(C#N)cc1 (stereo not shown),9.42
12,COc1ccc2cnn(-c3ccc(C)cc3)c(=O)c2c1OC,15
13,COc1cc([N+](=O)[O-])ccc1NC(=O)CCCOc1ccccc1,2.59
14,O=[N+]([O-])c1cccc(-c2cnc3ccccc3n2)c1,3.59
15,O=C(O)C1C2C=CC(C2)C1C(=O)NC1CCN(Cc2ccccc2)CC1 (stereo not shown),7.34
16,O=C(Nc1cccc(F)c1)Nc1ccc2c(c1)CCC2,10.8
17,CC(=O)N1C(=O)NC2=C(C(=O)CCC2)C1c1cccc([N+](=O)[O-])c1 (stereo not shown),20.6
18,CC(C)NC(=O)N1CCCN(c2nc3ccc(Cl)cc3s2)CC1,-5.36
19,O=C(CSc1ccc(Br)cc1)Nc1ccccc1Oc1ccccc1,8.88
20,CNC(=O)N(O)C1N(/N=C/c2c(F)cccc2Cl)C(=S)SC1(C)C (stereo not shown),15.7
21,Cc1ccc(C(=O)N/C(=C\c2ccc([N+](=O)[O-])cc2)C(=O)NCCc2ccccc2)cc1,-8.35
22,CC(C)NS(=O)(=O)c1ccc(NC(=O)Cc2cccs2)cc1,19.3
23,CC1CN(C(=O)c2ccc(OC3CCN(Cc4ccccn4)CC3)cc2)CCN1C (stereo not shown),5.61
24,COc1ccc(C(=O)N/C(=C\c2ccc3c(c2)OCO3)C(=O)NCCc2nc3ccccc3[nH]2)cc1,-0.285
25,COc1ccc(NC(=O)C2Cc3cc(S(=O)(=O)N4CCCCC4)ccc3N2C(C)=O)cc1Cl (stereo not shown),13.8
26,CC(C(=O)Nc1cccc(S(=O)(=O)N2CCOCC2)c1)N1CCN(C)CC1 (stereo not shown),-4.88
27,O=C(NCc1ccc2c(c1)OCO2)C(=O)NCC1OCCN1S(=O)(=O)c1ccc(Cl)cc1 (stereo not shown),4.08

# From publication PMC4336329 (PLoS ONE, 2015)
